# Assay results taken from PubChem BioAssay AID485281 (National Center for Advancing Translational Sciences (NCATS), 2010).
# The whole screen tested about 350,000 compounds, of which about 260 (0.074%) were called active. This list was built around the results that the source calls inconclusive (neither active nor inactive); the mix of calls is not that of the screen. Calls come from the whole dose curve; as a rule, active = well fitted inhibition curve with a large enough effect; inconclusive = small, poorly fitted or top-dose-only effect; inactive = no such curve, though single readings can be large or run the other way. Potencies beside an inconclusive call are fits to weak or partial responses and may not hold up.
# Molecular target: Ferritin light chain (Equus caballus) (UniProt P02791)
# Assay: qHTS Assay for Identification of Novel General Anesthetics; note: nearly all actives have a fitted effect of over 20% in size
# Settings: apoferritin/1-aminoanthracene competitive binding, fluorescence; series mostly up to 77.5 µM
# How it was run: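 Probe: 1-aminoanthracene (50% saturated, PBS). Protein: horse-spleen apoferritin, 10 uM. Incubation: 10 min, room temperature. Detection: 380 nm excitation, 535 nm emission. Analysis: normalized response, four-parameter Hill.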
# Potency is the fitted concentration of half-maximal effect; tags give direction and shape of the fitted curve.
# UniProt P02791, sequence (P02791 whole entry, looked up): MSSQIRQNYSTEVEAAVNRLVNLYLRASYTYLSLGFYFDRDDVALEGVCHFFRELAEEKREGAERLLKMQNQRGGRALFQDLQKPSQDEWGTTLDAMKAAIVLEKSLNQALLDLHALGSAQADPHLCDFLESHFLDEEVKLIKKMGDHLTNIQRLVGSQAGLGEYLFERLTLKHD
row,Compound,Potency
1,O=C(CC(=O)c1ccccc1O)c1ccc(F)cc1,"inconclusive: 11.2 µM [inhibitor, partial curve]"
2,CC12CCC(=O)N1C(C(=O)OCC(=O)Nc1ccc(Cl)c(Cl)c1)CS2 (centres undefined),"inconclusive: 25.1 µM [inhibitor, partial curve]"
3,O=c1c([N+](=O)[O-])c(N2CCOCC2)c2ccccc2n1Cc1ccccc1,"inconclusive: 15.8 µM [inhibitor, partial curve]"
4,COc1cccc(C(=O)Nc2cc(Cl)c(O)c(Cl)c2)c1,inactive
5,Cc1ccc([N+](=O)[O-])c(OCCN2CCc3ccccc3C2)c1,"inconclusive: 28.2 µM [inhibitor, partial curve]"
6,O=C(COC(=O)CCNS(=O)(=O)c1cccc(C(F)(F)F)c1)NC(=O)NC1CCCCC1,"inconclusive: 11.2 µM [inhibitor, full curve]"
7,Cc1ccnc(SCC(=O)N2CCc3ccccc32)n1,"inconclusive: 14.1 µM [inhibitor, partial curve]"
8,CCCn1cc(S(=O)(=O)c2ccc(CC)cc2)c(=O)c2ccccc21,inactive
9,CC1=C([N+](=O)[O-])C(c2ccccc2)C2=C(N1)c1ccccc1C2=O (centres undefined),"inconclusive: 50.1 µM [inhibitor, partial curve]"
10,CCc1nn2c(=O)cc(COC(=O)C(c3ccccc3)c3ccccc3)nc2s1,"inconclusive: 25.1 µM [inhibitor, partial curve]"
11,CC[C@H](C)[C@H](NC(=O)CNC(=O)[C@H](CCCNC(=N)N)NC(=O)[C@H](CO)NC(=O)[C@H](C)NC(=O)[C@H](Cc1ccc(O)cc1)NC(=O)[C@H](Cc1c[nH]c2ccccc12)NC(=O)[C@H](C)NC(=O)[C@@H]1CCCN1C(=O)[C@H](CC(N)=O)NC(=O)[C@@H](NC(=O)[C@H](CC(=O)O)NC(=O)[C@@H]1CCCN1C(=O)[C@@H](N)[C@@H](C)O)[C@@H](C)CC)C(=O)N[C@@H](CCCNC(=N)N)C(=O)N1CCC[C@H]1C(=O)N[C@H](C(=O)NCC(=O)N[C@@H](CCCNC(=N)N)C(=O)N[C@@H](Cc1ccccc1)C(N)=O)C(C)C,inactive
12,O=C(Nc1ccc(CN2CCOCC2)cc1)c1ccc(-c2ccc(Cl)cc2Cl)o1,"inconclusive: 17.8 µM [inhibitor, partial curve]"
13,Cc1ccc(C2=CC(c3ccc(N(C)C)cc3)n3nnnc3N2)cc1 (centres undefined),inactive
14,O=C(COc1cccc(-n2cnnn2)c1)NCCC1=CCCCC1,"inconclusive: 39.8 µM [inhibitor, partial curve, poor fit]"
15,CC1(C(=O)Nc2nc3ccccc3s2)CC1(Br)Br (centres undefined),inactive
16,Cc1nn(-c2cccc([N+](=O)[O-])c2)c(N)c1-c1ccccc1,"inconclusive: 28.2 µM [inhibitor, partial curve]"
17,C[C@@H](C(=O)O)c1ccc(C(=O)c2ccccc2)s1,inactive
18,Cc1ccc(Cl)cc1N1CCN(S(=O)(=O)c2cc3[nH]c(=O)c(=O)[nH]c3cc2C)CC1,"inconclusive: 14.1 µM [inhibitor, partial curve]"
19,Cc1ccc(NC(=O)CCCc2ccccc2)c([N+](=O)[O-])c1,"inconclusive: 39.8 µM [inhibitor, partial curve]"
20,COc1ccc(CC(=O)N2CCN=C2SCc2ccc([N+](=O)[O-])cc2)cc1,"inconclusive: 7.94 µM [inhibitor, full curve]"

row,Compound,Potency
1,O=C(Nc1cccc(F)c1)NC1CCCCCCC1,"inconclusive: 28.2 µM [inhibitor, partial curve]"
2,CC12CCC(C/C1=N/NC(=O)Nc1ccccc1)C2(C)C (centres undefined),inactive
3,CCCc1cc2c(-c3ccccc3)cc(=O)oc2cc1OCc1ccc(C(=O)O)o1,"inconclusive: 28.2 µM [inhibitor, partial curve]"
4,Fc1ccc(COc2ccc(/C=N/n3cnnc3)cc2)cc1,"inconclusive: 31.6 µM [inhibitor, partial curve]"
5,COc1ccc(CN(C)C(=O)c2cccc(NS(=O)(=O)c3ccccc3)c2)c(OC)c1,"inconclusive: 11.2 µM [inhibitor, partial curve]"
6,O=C(NCCCN1CCCCCC1)C(c1ccccc1)C1CCCCC1 (centres undefined),inactive
7,COc1ccc(C2(CNC(=O)c3ccccc3[N+](=O)[O-])CCOCC2)cc1,"inconclusive: 11.2 µM [inhibitor, full curve, poor fit]"
8,Cc1ccc(C(c2sc3nc(-c4ccco4)nn3c2O)N2CCN(Cc3ccccc3)CC2)cc1 (centres undefined),"inconclusive: 0.794 µM [inhibitor, full curve]"
9,CC1CCN(S(=O)(=O)c2cccc(C(=O)N(Cc3ccccc3)c3ccccn3)c2)CC1,"inconclusive: 8.91 µM [inhibitor, partial curve]"
10,COc1ccc(CCNC(=O)COc2ccc(S(=O)(=O)NC3CCCCC3)cc2Cl)cc1,inactive
11,O=C(OCC(=O)N1CCCCCC1)c1ccc([N+](=O)[O-])cc1Cl,"inconclusive: 28.2 µM [inhibitor, partial curve]"
12,COc1cc(CN2CCC(C)CC2)ccc1OCc1ccccc1,"inconclusive: 28.2 µM [inhibitor, partial curve]"
13,O=C(OCC(=O)N1CCCc2ccccc21)c1cccnc1Cl,"inconclusive: 31.6 µM [inhibitor, partial curve]"
14,C=CCc1c(C)nc(SC)nc1Nc1ccc(C)cc1,"inconclusive: 50.1 µM [inhibitor, single point]"
15,COc1ccc2[nH]c(=O)c(CN(CCCN3CCOCC3)C(=O)NCc3ccccc3)cc2c1,inactive
16,Cc1nn(C)c2nc(-c3cccs3)cc(C(F)(F)F)c12,"inconclusive: 31.6 µM [inhibitor, single point]"
17,CC(=O)Nc1ccc(NC(=O)C(C)OC(=O)CCC2CCCCC2)cc1 (centres undefined),"inconclusive: 22.4 µM [inhibitor, partial curve]"
18,O=C(Nc1nccs1)C1CCN(S(=O)(=O)c2ccc(Cl)c(C(F)(F)F)c2)CC1,"inconclusive: 12.6 µM [inhibitor, partial curve, poor fit]"
19,COc1ccc(/C(C)=N/NC(=O)CNC(=O)C2COc3ccccc3O2)c(OC)c1 (centres undefined),"inconclusive: 14.1 µM [inhibitor, partial curve]"
